Data taken from patent publication US20040259082A1 (priority 2001, published 2004).

Assays:
T7 DNA polymerase [1] = molecular target: T7 DNA polymerase (Escherichia phage T7, UniProt P00581, DEL118-145); conditions: 50 μM dATP, dCTP, dGTP; 37° C. for 30 min
T7 DNA polymerase exo- = molecular target: T1, T7 DNA polymerase exo- (Escherichia phage T7, UniProt P00581, D5A/E7A); experiment: Primer extension with γ-labeled dTTP; assay type: biochemical; conditions: 100 mer template (FIG. 16)
T1 construct: made in house; host or cells: E. coli TOP 10
Method: Samples contained 50 mM IRD700-labeled primer, 100 nM template, 100 nM polymerase, 20 μM each dNTP with either unlabeled or γ-labeled dTTP. Incubation times (a-f) were 5, 10, 30, 60, 90 and 120 sec at 20° C.
FIG. 16 illustrates that there is no dTTP contamination in other components of the reaction mix. Lane 1 is a negative control showing the primed single-strand template.
To rule out the possibility of contamination, the γ-dTTP-BQS(++)-BodipyTR was analyzed by HPLC for unlabeled dTTP: none was found. Another experiment was done with a different template (the 100 mer used for the high-throughput polymerase assay) to try to detect dTTP contamination in other components of the reaction mix (FIG. 16): none was found. PPi-F is produced using T7 polymerase. The cleavage product is purified free from Mg^++.

T7 DNA polymerase [2] = conditions: published value, Patel et al. 1991; read-out: Km for dTTP (published value); cited from earlier work

SMILES | incorporation of γ-dUTP analogs / dUTP (FIG. 6) (T7 DNA polymerase [1]) | primer extension product (T7 DNA polymerase exo-) | Km (T7 DNA polymerase [2]) [µM]
O=c1ccn([C@H]2C[C@H](O)[C@@H](COP(=O)(O)OP(=O)(O)OP(=O)(O)O)O2)c(=O)[nH]1 [dUTP] | synthesized full-length product |  | 
Cc1cn([C@H]2C[C@H](O)[C@@H](COP(=O)(O)OP(=O)(O)OP(=O)(O)O)O2)c(=O)[nH]c1=O [dTTP] |  | fully-double-stranded primer extension product | 21
